Assay results as given in the supplement of paper PMC4967469.
pIC50: −log10 of the molar value. By IC50 is meant the dose at which the fit gives 50% viability; a fit beyond the top or the lowest dose is shown as a bound at that dose. AUC, from the same fit, is the share of area under the viability curve across the 256-fold dose range; the more sensitive the line, the further below 1. For some of these results: Where the top dose is marked as inferred, it was calculated from the reported fits.

How the values were obtained:
Experiment in all cases: Viability of human cancer cell lines after 72 h of drug (GDSC screen)
Vismodegib = compound: CS(=O)(=O)c1ccc(C(=O)Nc2ccc(Cl)c(-c3ccccn3)c2)c(Cl)c1 [Vismodegib]; details: top dose 10 µM; top dose inferred
Experimental: (§1)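 Human cancer cell lines in 384-well plates, medium with 10% serum, drug for 72 h over a 256-fold dose range (nine 2-fold or five 4-fold steps up to the top dose). Adherent lines were fixed and stained with the nucleic acid dye Syto60, suspension lines read with resazurin; signal relative to control wells, capped at 0 and 100%. One two-parameter sigmoid per drug and line, fitted in a mixed model over all curves with the slope shared within a line.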

UNC1215 = compound: O=C(c1ccc(C(=O)N2CCC(N3CCCC3)CC2)c(Nc2ccccc2)c1)N1CCC(N2CCCC2)CC1 [UNC1215]; details: top dose 1 µM; top dose inferred
Experimental: as §1

VX-11e = compound: Cc1cnc(Nc2ccc(F)cc2Cl)nc1-c1c[nH]c(C(=O)N[C@H](CO)c2cccc(Cl)c2)c1 [VX-11e]; details: top dose 5.12 µM; top dose inferred
Experimental: as §1

Doxorubicin = compound: COc1cccc2c1C(=O)c1c(O)c3c(c(O)c1C2=O)C[C@@](O)(C(=O)CO)C[C@@H]3O[C@H]1C[C@H](N)[C@H](O)[C@H](C)O1 [Doxorubicin]; details: top dose 1.024 µM
Experimental: as §1

17-AAG = compound: C=CCNC1=C2C[C@@H](C)C[C@H](OC)[C@H](O)[C@@H](C)/C=C(\C)[C@H](OC(N)=O)[C@@H](OC)/C=C\C=C(/C)C(=O)NC(=CC1=O)C2=O [17-AAG]; details: top dose 1 µM
Experimental: as §1

Dimethyloxalylglycine = compound: COC(=O)CNC(=O)C(=O)OC [Dimethyloxalylglycine]; details: top dose 4000 µM; top dose inferred
Experimental: as §1

OSI-027 = compound: COc1cccc2cc(-c3nc([C@H]4CC[C@H](C(=O)O)CC4)n4ncnc(N)c34)[nH]c12 [OSI-027]; details: top dose 20 µM
Experimental: as §1

TG101348 = compound: Cc1cnc(Nc2ccc(OCCN3CCCC3)cc2)nc1Nc1cccc(S(=O)(=O)NC(C)(C)C)c1 [TG101348]; details: top dose 10.24 µM
Experimental: as §1

BIX02189 = compound: CN(C)Cc1cccc(N=C(c2ccccc2)c2c(O)[nH]c3cc(C(=O)N(C)C)ccc23)c1 [BIX02189]; details: top dose 20 µM; top dose inferred
Experimental: as §1

CCT018159 = compound: CCc1cc(-c2n[nH]c(C)c2-c2ccc3c(c2)OCCO3)c(O)cc1O [CCT018159]; details: top dose 10 µM; top dose inferred
Experimental: as §1

| Cell Line | AUC (Vismodegib) | pIC50 (Vismodegib) | AUC (UNC1215) | pIC50 (UNC1215) | AUC (VX-11e) | pIC50 (VX-11e) | AUC (Doxorubicin) | pIC50 (Doxorubicin) | AUC (17-AAG) | pIC50 (17-AAG) | AUC (Dimethyloxalylglycine) | pIC50 (Dimethyloxalylglycine) | AUC (OSI-027) | pIC50 (OSI-027) | AUC (TG101348) | pIC50 (TG101348) | AUC (BIX02189) | pIC50 (BIX02189) | AUC (CCT018159) | pIC50 (CCT018159) |
| --- | --- | --- | --- | --- | --- | --- | --- | --- | --- | --- | --- | --- | --- | --- | --- | --- | --- | --- | --- | --- |
| HC-1 (hairy cell leukaemia, suspension) | 0.985 | < 5.00 | 0.985 | < 6.00 | 0.908 | < 5.29 | 0.436 | 7.37 | 0.917 | < 6.00 | 0.603 | 3.33 | 0.397 | 6.18 | 0.585 | 5.97 | 0.818 | 4.97 | 0.877 | 5.03 |
| Hs633T (fibrosarcoma, adherent) | 0.968 | < 5.00 | 0.991 | < 6.00 | 0.873 | 5.46 | 0.312 | 7.67 | 0.936 | < 6.00 | 0.416 | 3.81 | 0.288 | 6.44 | 0.867 | 5.18 | 0.951 | < 4.70 | 0.858 | 5.23 |
| NCI-H2405 (lung adenocarcinoma, adherent) | 0.986 | < 5.00 | 0.902 | < 6.00 | 0.887 | < 5.29 | 0.693 | 6.63 | 0.76 | 6.41 | 0.504 | 3.59 | 0.734 | 5.20 | 0.935 | < 4.99 | 0.957 | < 4.70 | 0.873 | < 5.00 |
| JHH-7 (liver, adherent) | 0.98 | < 5.00 | 0.986 | < 6.00 | 0.974 | < 5.29 | 0.405 | 7.44 | 0.672 | 6.74 | 0.316 | 4.10 | 0.615 | 5.60 | 0.877 | 5.04 | 0.987 | < 4.70 | 0.921 | < 5.00 |
| HCC2157 (breast, suspension) | 0.935 | < 5.00 | 0.969 | < 6.00 | 0.987 | < 5.29 | 0.498 | 7.20 | 0.572 | 7.00 | 0.87 | < 2.40 | 0.628 | 5.54 | 0.823 | 5.19 | 0.987 | < 4.70 | 0.816 | 5.23 |
| KYM-1 (rhabdomyosarcoma, adherent) | 0.979 | < 5.00 | 0.991 | < 6.00 | 0.991 | < 5.29 | 0.609 | 6.92 | 0.563 | 7.04 | 0.691 | 3.11 | 0.61 | 5.62 | 0.89 | 5.05 | 0.991 | < 4.70 | 0.929 | < 5.00 |
| HCC-44 (lung adenocarcinoma, adherent) | 0.938 | < 5.00 | 0.985 | < 6.00 | 0.874 | 5.32 | 0.434 | 7.37 | 0.27 | 7.85 | 0.557 | 3.45 | 0.576 | 5.70 | 0.841 | 5.16 | 0.938 | < 4.70 | 0.909 | < 5.00 |
| ROS-50 (B-cell leukaemia, suspension) | 0.973 | < 5.00 | 0.975 | < 6.00 | 0.981 | < 5.29 | 0.882 | < 5.99 | 0.984 | < 6.00 | 0.586 | 3.34 | 0.377 | 6.28 | 0.728 | 5.46 | 0.807 | 4.86 | 0.976 | < 5.00 |
| L-363 (myeloma, suspension) | 0.967 | < 5.00 | 0.99 | < 6.00 | 0.968 | < 5.29 | 0.757 | 6.51 | 0.849 | 6.22 | 0.405 | 3.84 | 0.37 | 6.24 | 0.704 | 5.66 | 0.945 | < 4.70 | 0.934 | < 5.00 |
| SK-HEP-1 (liver, adherent) | 0.989 | < 5.00 | 0.988 | < 6.00 | 0.981 | < 5.29 | 0.359 | 7.57 | 0.92 | < 6.00 | 0.321 | 4.09 | 0.984 | < 4.70 | 0.989 | < 4.99 | 0.938 | < 4.70 | 0.915 | < 5.00 |
| WSU-NHL (lymphoid neoplasm, suspension) | 0.926 | < 5.00 | 0.99 | < 6.00 | 0.59 | 6.26 | 0.654 | 6.79 | 0.942 | < 6.00 | 0.839 | 2.64 | 0.739 | 5.27 | 0.838 | 5.24 | 0.917 | < 4.70 | 0.839 | 5.25 |
